The values that follow come from the supplement of paper PMC11417369.

The other results are listed elsewhere or left out.

For the assay, the system named is PfHDP1 homeodomain (GST-tagged). Nature of the assay: gcPBM binding intensity (ln(normalized median fluorescence intensity)); higher = stronger DNA binding. Summed up: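 GST-fused DNA-binding domains of P. falciparum, expressed in E. coli, were applied at about 25 μg on average for 1 h to an Agilent 4 × 180k array of primer-extended double-stranded 36-bp intergenic genomic probes and negative controls. Binding intensity is the highest Masliner-normalised natural-log median intensity across replicate spots of either probe orientation, measured with Alexa488 anti-GST antibody and a 488 nm scan.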
On to “AAAATAATTCATGTTGGTAATAAGACTCGAGGTGAA [CACACA_negctrl_site1054]”, for which the “gcPBM binding intensity (ln)” value came to 6.77.
As for “TTTATTTTAAATGGGTGTACTCATTCCTTATGGAAG [XGTACX_site1397]”, the “gcPBM binding intensity (ln)” value stood at 6.27.
For “TAATAGATGTTATGAAGTACTAAATATTAAATATAA [XGTACX_site5717]”, the “gcPBM binding intensity (ln)” value was determined as 6.46.
On to “GTATAATATTTTAATGCACACACACTAATAAAAAAA [CACACA_site8939]”, for which the “gcPBM binding intensity (ln)” value was determined as 10.4.
For the sequence “TTTGGATAAAAAATATGTACACACATATAGATATCT [XGTACX_site5660]”, the “gcPBM binding intensity (ln)” value was 6.17.
Next, “TTGACAGGAACGTTGGTGCACGTACTGTTTTTCTTT [GTGCAC_site9389]”: 9.26; “AAGTATAAATAAAGGCGTACACATGTAAATTATATT [XGTACX_site126]”: 6.79; “AAAAAAAAAAAATACACACACATATTTATTTATATA [CACACA_site7114]”: 6.47.
The same measure for “AAAAAAGGTAAAAAAAGTACAAAAAAAAAATTAAAA [XGTACX_site6993]”: 6.18.
Turning to “AGTAGTCTGGAGAAAAGTACATAGTATCTGATAACC [XGTACX_site2028]”, the “gcPBM binding intensity (ln)” value was 6.61.
Turning to “TGCTTATATATAAATTGTACTGAAAGAATAAAATAA [XGTACX_site4025]”, the “gcPBM binding intensity (ln)” value was 6.52.
As for “AAAAAGATAAAATATACATGCATATATAATATACAT [TGCATGCA_site488]”, the “gcPBM binding intensity (ln)” value amounted to 6.39.
Take “ACGTATTTTTAAATATATGAATTATGTAACTTGTGA [CACACA_negctrl_site1446]”: the “gcPBM binding intensity (ln)” value came to 6.16.
Turning to “GAATATGTGATATTTTGTACATAAAAATAATATATA [XGTACX_site6398]”, the “gcPBM binding intensity (ln)” value was determined as 6.49.
Take “TATACTATTTAAATGTGTACTAAAAGAATATATTAT [XGTACX_site5238]”: the “gcPBM binding intensity (ln)” value was 6.61.
On to “CTATATGTTAAATTCTCACACATTATTACAATTTAA [CACACA_site5979]”, for which the “gcPBM binding intensity (ln)” value came out at 6.78.
Next, “TGTTCATTTTTAAAATGTACATATATGTTGTTCCAT [XGTACX_site8444]”: 6.77.
Regarding “CATATGTATATGACTACACACAAGGGTGTACCTATA [CACACA_site6670]”, the “gcPBM binding intensity (ln)” value is 6.34.
The same measure for “TTAAAAATAAATTCATGTACATAATATATATATATA [XGTACX_site7908]”: 8.86; for “TATATACAACGTTAAGCACACACAAAAAAAATTTAA [CACACA_site9013]”: 6.86; for “AAAACATAAATACATACACACATAATATAGATTAAT [CACACA_site6205]”: 6.63.
On to “TTGCATTTATTATACACACACAAAAAAATATTTATA [CACACA_site6252]”, for which the “gcPBM binding intensity (ln)” value is 7.08.
The same measure for “ATTTAATTTTTTTTTTTTTTTTTTCAATCCCCTTTT [CACACA_negctrl_site1013]”: 6.11.
As to “TTTTAAACAAAAATTTGTACACAATAATTAAATATA [XGTACX_site6755]”, the “gcPBM binding intensity (ln)” value was 6.67.
